These results are taken from PMC9870993.

Protein sequences, listed by entry. Tags and fused reporters are not part of them. Lines headed by an entry give the natural chain unless they say otherwise; changes in a name come on top. Chains listed by the source or under a name are the forms on record and can include a tag or linker.
UniProt Q05609: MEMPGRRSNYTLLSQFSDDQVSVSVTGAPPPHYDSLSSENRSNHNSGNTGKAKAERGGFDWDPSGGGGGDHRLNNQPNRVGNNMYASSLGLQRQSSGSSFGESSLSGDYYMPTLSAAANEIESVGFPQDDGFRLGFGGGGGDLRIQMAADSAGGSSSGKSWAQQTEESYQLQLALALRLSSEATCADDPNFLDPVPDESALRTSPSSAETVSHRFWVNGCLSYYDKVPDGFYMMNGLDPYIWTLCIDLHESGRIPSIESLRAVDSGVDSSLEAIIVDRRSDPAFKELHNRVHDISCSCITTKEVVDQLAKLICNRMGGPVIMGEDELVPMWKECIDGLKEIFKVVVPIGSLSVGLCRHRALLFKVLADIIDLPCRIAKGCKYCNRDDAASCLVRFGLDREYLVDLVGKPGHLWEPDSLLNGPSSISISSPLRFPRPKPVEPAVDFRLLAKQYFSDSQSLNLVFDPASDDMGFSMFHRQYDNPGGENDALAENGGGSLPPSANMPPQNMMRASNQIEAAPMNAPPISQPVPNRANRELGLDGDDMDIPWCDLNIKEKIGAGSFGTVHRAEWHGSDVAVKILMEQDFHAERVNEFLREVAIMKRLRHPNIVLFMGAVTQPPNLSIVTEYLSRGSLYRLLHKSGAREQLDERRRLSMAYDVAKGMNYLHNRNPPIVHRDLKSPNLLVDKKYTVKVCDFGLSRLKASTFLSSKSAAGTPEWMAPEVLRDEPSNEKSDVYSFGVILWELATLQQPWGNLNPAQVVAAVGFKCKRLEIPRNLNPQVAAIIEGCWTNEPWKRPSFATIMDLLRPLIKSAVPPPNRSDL
∆NT-CTR1^AAA (kinase domain of CTR1 with T704/S707/S710 altered to Ala) (Q05609, form named): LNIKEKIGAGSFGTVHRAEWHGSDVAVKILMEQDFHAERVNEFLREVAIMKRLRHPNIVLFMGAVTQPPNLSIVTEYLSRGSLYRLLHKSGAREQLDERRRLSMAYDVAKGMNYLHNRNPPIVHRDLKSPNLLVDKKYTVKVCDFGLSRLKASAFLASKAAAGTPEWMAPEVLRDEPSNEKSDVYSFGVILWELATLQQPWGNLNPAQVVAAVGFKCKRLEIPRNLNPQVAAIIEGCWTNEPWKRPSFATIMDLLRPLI
∆NT-CTR1-1 (kinase domain of CTR1 with the ctr1-1 mutation D694E, catalytically inactive) (Q05609, form named): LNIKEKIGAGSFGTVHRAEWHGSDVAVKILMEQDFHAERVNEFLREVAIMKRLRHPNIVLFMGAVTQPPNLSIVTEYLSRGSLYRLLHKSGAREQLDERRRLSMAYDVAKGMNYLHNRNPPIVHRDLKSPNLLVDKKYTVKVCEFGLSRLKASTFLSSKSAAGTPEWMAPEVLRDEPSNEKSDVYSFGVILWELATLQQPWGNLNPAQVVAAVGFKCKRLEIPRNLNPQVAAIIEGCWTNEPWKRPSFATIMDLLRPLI

Like-named read-outs stand apart in the source and are kept apart here. Results are given in words; binding and its absence hold for the method and conditions named. For part of these data: Binding seen in cells or lysates may run through a third protein. Some results given as binding are weak or reduced against the parent protein; the word gives no strength. For part of these data: Tags and fused reporters may be left off the sequences shown.

The target of test [1] is ∆NT-CTR1^AAA (kinase domain of CTR1 with T704/S707/S710 altered to Ala) (Arabidopsis thaliana) (UniProt Q05609). Kind of test: two-hybrid; bait and prey constructs (pGBKT7, pGADT7) co-transformed into yeast strain AH109; positive interactions selected on medium lacking histidine, tryptophan, leucine and adenine.
The target in test [2] is ∆NT-CTR1 (CTR1 lacking the N-terminal domain; kinase domain of CONSTITUTIVE TRIPLE RESPONSE1) (Arabidopsis thaliana) (UniProt Q05609). The test is described as above.
The target is the same in test [3]. The description is as above. This is another data set of the same source.
The target in test [4] is ∆NT-CTR1-1 (kinase domain of CTR1 with the ctr1-1 mutation D694E, catalytically inactive) (Arabidopsis thaliana) (UniProt Q05609). The test is described as above.
Test [5] concerns the target Full-length wild-type CTR1, nYFP fusion for BiFC (Arabidopsis thaliana) (UniProt Q05609). Put plainly: split reporter; BiFC (nYFP and cYFP fusions) in infiltrated N. benthamiana leaves, confocal microscopy of leaf disks; with or without ACC.
The target in test [6] is CTR1 expressed in N. benthamiana for co-immunoprecipitation (Arabidopsis thaliana) (UniProt Q05609). Kind of test: co-IP; total protein extracts of N. benthamiana leaves infiltrated with co-transformed Agrobacteria, 3 d; anti-GFP overnight at 4 °C, Protein A/G magnetic beads; buffer 25 mM Tris pH 7.5, 150 mM NaCl, 5 mM EDTA, 1 mM DTT; blots with anti-GFP and anti-Myc.

For “∆NT-CTR1^AAA (kinase domain of CTR1 with T704/S707/S710 altered to Ala) (from UniProt Q05609 551-809) (domain or fragment)”, in test [1], the binding entry is given as “no binding”. Take “∆NT-CTR1 (CTR1 lacking the N-terminal domain; kinase domain of CONSTITUTIVE TRIPLE RESPONSE1) (from UniProt Q05609 551-809) (domain or fragment)”: the binding result in test [2] is given as “binds”.

B1: EIN3-Binding F-box 1 (EBF1), two-hybrid fusion (protein, UniProt Q9SKK0 1-628)
chain: MSQIFSFAGENDFYRRGAIYPNPKDASLLLSLGSFADVYFPPSKRSRVVAPTIFSAFEKKPVSIDVLPDECLFEIFRRLSGPQERSACAFVSKQWLTLVSSIRQKEIDVPSKITEDGDDCEGCLSRSLDGKKATDVRLAAIAVGTAGRGGLGKLSIRGSNSAKVSDLGLRSIGRSCPSLGSLSLWNVSTITDNGLLEIAEGCAQLEKLELNRCSTITDKGLVAIAKSCPNLTELTLEACSRIGDEGLLAIARSCSKLKSVSIKNCPLVRDQGIASLLSNTTCSLAKLKLQMLNVTDVSLAVVGHYGLSITDLVLAGLSHVSEKGFWVMGNGVGLQKLNSLTITACQGVTDMGLESVGKGCPNMKKAIISKSPLLSDNGLVSFAKASLSLESLQLEECHRVTQFGFFGSLLNCGEKLKAFSLVNCLSIRDLTTGLPASSHCSALRSLSIRNCPGFGDANLAAIGKLCPQLEDIDLCGLKGITESGFLHLIQSSLVKINFSGCSNLTDRVISAITARNGWTLEVLNIDGCSNITDASLVSIAANCQILSDLDISKCAISDSGIQALASSDKLKLQILSVAGCSMVTDKSLPAIVGLGSTLLGLNLQQCRSISNSTVDFLVERLYKCDILS
In the case of B1, the binding entry in test [3] and in test [4] was “binds” throughout.

B2: cYFP-EBF1 (BiFC) (protein, UniProt Q9SKK0 1-628)
chain: B1 chain
Take B2: the binding result in test [5] is recorded as “binds”.

B3: EBF2 expressed in N. benthamiana for co-immunoprecipitation (protein, UniProt Q708Y0 1-623)
chain: MSGIFRFSGDEDCLLGGSMYLSPGSCPGVYYPARKRLRVAATSFYSGFEEKQTSIDVLPEECLFEILRRLPSGQERSACACVSKHWLNLLSSISRSEVNESSVQDVEEGEGFLSRSLEGKKATDLRLAAIAVGTSSRGGLGKLQIRGSGFESKVTDVGLGAVAHGCPSLRIVSLWNLPAVSDLGLSEIARSCPMIEKLDLSRCPGITDSGLVAIAENCVNLSDLTIDSCSGVGNEGLRAIARRCVNLRSISIRSCPRIGDQGVAFLLAQAGSYLTKVKLQMLNVSGLSLAVIGHYGAAVTDLVLHGLQGVNEKGFWVMGNAKGLKKLKSLSVMSCRGMTDVGLEAVGNGCPDLKHVSLNKCLLVSGKGLVALAKSALSLESLKLEECHRINQFGLMGFLMNCGSKLKAFSLANCLGISDFNSESSLPSPSCSSLRSLSIRCCPGFGDASLAFLGKFCHQLQDVELCGLNGVTDAGVRELLQSNNVGLVKVNLSECINVSDNTVSAISVCHGRTLESLNLDGCKNITNASLVAVAKNCYSVNDLDISNTLVSDHGIKALASSPNHLNLQVLSIGGCSSITDKSKACIQKLGRTLLGLNIQRCGRISSSTVDTLLENLWRCDILY
As for B3, the binding entry in test [6] is “binds”.

B4: EIN3-Binding F-box 2 (EBF2), two-hybrid fusion (protein, UniProt Q708Y0 1-623)
chain: B3 chain
For B4, the binding result in test [3] and in test [4] was “binds” throughout.

B5: cYFP-EBF2 (BiFC) (protein, UniProt Q708Y0 1-623)
chain: B3 chain
For B5, the binding entry in test [5] is “binds”.

B6: ETHYLENE-…3 (EIN3), two-hybrid fusion (protein, UniProt O24606 1-628)
chain: MMFNEMGMCGNMDFFSSGSLGEVDFCPVPQAEPDSIVEDDYTDDEIDVDELERRMWRDKMRLKRLKEQDKGKEGVDAAKQRQSQEQARRKKMSRAQDGILKYMLKMMEVCKAQGFVYGIIPENGKPVTGASDNLREWWKDKVRFDRNGPAAITKYQAENNIPGIHEGNNPIGPTPHTLQELQDTTLGSLLSALMQHCDPPQRRFPLEKGVPPPWWPNGKEDWWPQLGLPKDQGPAPYKKPHDLKKAWKVGVLTAVIKHMFPDIAKIRKLVRQSKCLQDKMTAKESATWLAIINQEESLARELYPESCPPLSLSGGSCSLLMNDCSQYDVEGFEKESHYEVEELKPEKVMNSSNFGMVAKMHDFPVKEEVPAGNSEFMRKRKPNRDLNTIMDRTVFTCENLGCAHSEISRGFLDRNSRDNHQLACPHRDSRLPYGAAPSRFHVNEVKPVVGFPQPRPVNSVAQPIDLTGIVPEDGQKMISELMSMYDRNVQSNQTSMVMENQSVSLLQPTVHNHQEHLQFPGNMVEGSFFEDLNIPNRANNNNSSNNQTFFQGNNNNNNVFKFDTADHNNFEAAHNNNNNSSGNRFQLVFDSTPFDMASFDYRDDMSMPGVVGTMDGMQQKQQDVSIWF
B6: the binding result in test [3] and in test [4] was “no binding” each time.

B7: EIN3 with C-terminal cYFP (BiFC) (protein, UniProt O24606 1-628)
chain: B6 chain
With B7, the binding result in test [5] is reported as “no binding”.
